In the supplement of paper PMC8821664 one finds AQP5-HiBiT luminescence data, which are given here for 5 compounds.

Counter-ions that a name gives are not always drawn. The list shows a part of the results. Single values are uncertain, as repeats are few or missing.
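Also: monoclonal Beas-2B line stably carrying CMV promoter-driven AQP5-HiBiT, 5,000 cells per well in 384-well plates, lytic HiBiT plus LgBiT NanoLuc luminescence, FDA-approved drug library screen.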

This assay relates to Beas-2B AQP5-HiBiT reporter cells. In words: AQP5-HiBiT luminescence relative to vehicle (ratio to vehicle); higher = higher AQP5-HiBiT protein abundance. To be noted: 10 µM; 18 h.
In the case of `C=C[C@H]1CN2CC[C@H]1C[C@H]2[C@H](O)c1ccnc2ccc(OC)cc12` [Quinine], the AQP5-HiBiT luminescence was 1.06. The figure for `C[C@]12CC[C@@H]3c4ccc(OS(=O)(=O)O)cc4CC[C@H]3[C@@H]1CCC2=O` [Estropipate] is 0.739.

For `C=CC(=O)N1CCC[C@@H](n2nc(-c3ccc(Oc4ccccc4)cc3)c3c(N)ncnc32)C1`, the AQP5-HiBiT luminescence is 0.364. For the compound `CO/N=C(\C(=O)N[C@@H]1C(=O)N2C(C(=O)OCOC(=O)C(C)(C)C)=C(/C=C\c3scnc3C)CS[C@H]12)c1csc(N)n1` [Cefditoren pivoxil], the AQP5-HiBiT luminescence is 1.38. As to `CCN(CCO)CCCC(C)Nc1ccnc2cc(Cl)ccc12` (stereo not given) [Hydroxychloroquine sulfate], the AQP5-HiBiT luminescence came to 1.24.
